Measured values reported in the supplement of paper PMC10126150.
Sequences with one replicate were seen in a single cluster, so their values are uncertain.

Each sequence was assayed on ATP (assay: switch fluorescence ratio, 500 uM ATP over buffer (Cy3 cluster intensity, sum of 5 cycles each) (fold (ratio)); higher = stronger signal-on switching upon ATP binding; sequences stand for … in TCGTCGGCAGCGTCAGATGTGTATAAGAGACAGTTTTTTTTTTTTTTTTTTTTTTTTT…TC). Details: aptamer strand: ATP DNA aptamer (quencher-CACCTGGGGGAGTATTGCGGAGGAAGG + anchor), 100 nM annealed; ATP concentration: 500 uM; one replicate.
In short: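 Imaging in selection buffer was followed by imaging after 15 min with 500 uM ATP at 22 °C, for Cy3-labelled switching-strand clusters annealed to 100 nM quencher-labelled ATP aptamer on a modified Illumina MiSeq flow-cell. Five of these buffer/ATP cycles ran, separated by NaOH stripping and re-annealing. The fluorescence ratio per cluster is summed target-cycle over summed buffer-cycle Cy3 intensity, averaged per switch-domain sequence; clusters outside 100-1000 RFU were removed.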
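Further: ATP exposure 15 min at 22 °C before imaging.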

Row | Sequence | switch fluorescence ratio
1 | CAAAGAATTG | 0.996
2 | CAAAGAGAGC | 1.01
3 | CAAAGAGGGT | 1.01
4 | CAAAGCTTCA | 1.57
5 | CAAAGGATAG | 1.04
6 | CAAAGTATTT | 0.967
7 | CAAAGTCAAT | 1.1
8 | CAAATAACTA | 0.973
9 | CAAATCATTT | 1.03
10 | CAAATCCGTG | 1.02
11 | CAAATGACCT | 1.39
12 | CAAATGGAGG | 0.995
13 | CAAATGGTAG | 1.02
14 | CAAATGTGGC | 0.994
15 | CAAATTTTGA | 1.03
16 | CAACAAAACG | 1.03
17 | CAACACATCC | 1.08
18 | CAACATACGG | 1.46
19 | CAACCAGGGA | 1.5
20 | CAACCCCATC | 1.05
21 | CAACCCCCAC | 1.45
22 | CAACCGCAGG | 1.01
23 | CAACCGTCGG | 1.08
24 | CAACCTTCT | 2.68
25 | CAACGAGTC | 1.25

Row | Sequence | switch fluorescence ratio
26 | CAACGTATAG | 1.07
27 | CAACTACAAA | 0.956
28 | CAACTCAAAA | 1.05
29 | CAACTCACGC | 1.43
30 | CAACTCAGAT | 1
31 | CAACTCGCCC | 1.13
32 | CAACTGGCTC | 0.955
33 | CAAGATAAGT | 1.02
34 | CAAGATAGAT | 1
35 | CAAGATTGGC | 0.983
36 | CAAGCAAGAG | 3.33
37 | CAAGCAAGCG | 1.14
38 | CAAGCACTAA | 1.34
39 | CAAGCCAATG | 1.02
40 | CAAGCCACTC | 1.12
41 | CAAGCCGGGC | 1.09
42 | CAAGCCTGGT | 1
43 | CAAGCGGTCT | 0.976
44 | CAAGGAACTT | 1.03
45 | CAAGGACGAA | 1.07
46 | CAAGGAGCT | 0.958
47 | CAAGGCACCG | 1.04
48 | CAAGGCTAGT | 1.08
49 | CAAGGGAAAT | 1.03
50 | CAAGGGAATA | 1.02

Row | Sequence | switch fluorescence ratio
51 | CAAGGGACCG | 0.885
52 | CAAGGGATTA | 0.969
53 | CAAGGTAGAT | 0.981
54 | CAAGGTTCAC | 0.979
55 | CAAGGTTGGC | 1.09
56 | CAAGGTTTAT | 0.998
57 | CAAGTACCGC | 1.23
58 | CAAGTCAGC | 0.997
59 | CAAGTCGGGT | 0.961
60 | CAAGTGGACC | 1.03
61 | CAAGTTACCC | 1.1
62 | CAAGTTCTTT | 1.03
63 | CAAGTTTCAC | 0.99
64 | CAATAATAAG | 0.97
65 | CAATAATACC | 1.08
66 | CAATAGGACT | 1.01
67 | CAATAGTGC | 1.02
68 | CAATATCGGG | 0.982
69 | CAATATCTGG | 1
70 | CAATATGGGC | 0.975
71 | CAATCATAGG | 0.999
72 | CAATCCGCCA | 3.79
73 | CAATCGGGCA | 1.03
74 | CAATCGGGCT | 1
75 | CAATCGGTGT | 1.01

Row | Sequence | switch fluorescence ratio
76 | CAATCTCAGC | 1.01
77 | CAATCTCCGT | 1.12
78 | CAATCTCGGT | 0.997
79 | CAATCTTGGT | 1.08
80 | CAATCTTGTG | 1.01
81 | CAATGAGAGG | 1.01
82 | CAATGATGTT | 1.03
83 | CAATGGTATT | 1.04
84 | CAATGGTTGG | 1.04
85 | CAATGTGACA | 0.985
86 | CAATGTGGTC | 1.03
87 | CAATGTTACA | 0.993
88 | CAATTAATTT | 1.05
89 | CAATTACTGC | 1.02
90 | CAATTATTGG | 0.989
91 | CAATTCACCC | 1.1
92 | CAATTCCTTT | 0.978
93 | CAATTGATAC | 1.04
94 | CAATTGATGT | 0.99
95 | CAATTTTTAT | 1.02
96 | CACAAAAGGC | 0.992
97 | CACAAGGAGG | 1.02
98 | CACAAGGGGG | 0.981
99 | CACAATAGTC | 1.63
100 | CACAATCTAC | 1.16
